Laboratory results from PubChem BioAssay AID686978 (National Center for Advancing Translational Sciences (NCATS), 2013).
Among all 420,000 compounds or so, about 64,000 (15%) were called active. This list was built around the results that the source calls inconclusive (neither active nor inactive); the mix of calls is not that of the screen. Calls follow the shape of the dose curve; as a rule, active = well fitted inhibition curve with a large enough effect; inconclusive = small, poorly fitted or top-dose-only effect; inactive = flat fitted curve, though single readings scatter. No potency is given beside an inconclusive call; the fits are too rough.

Test: qHTS for Inhibitors of human tyrosyl-DNA phosphodiesterase 1 (TDP1): qHTS in cells in absence of CPT; also: nearly all actives have a fitted effect of over 55% in size
Conditions: DT40 Tdp1-/- hTDP1 cells, no CPT, ATP luminescence, 48 h; activity change, negative = growth inhibition: at 46.2 µM (top of the series) unless noted
Method in brief: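 Growth kinetics read by CellTiter-Glo luminescence after ≥48 hr at 37 °C. Cells: DT40 Tdp1-/- stably carrying human TDP1, 400 per well, compound exposure in the absence of CPT (DMSO vehicle).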
% is scaled to controls: 0 for no effect and ±100 for the full control effect; potency is read from the fitted curve at half-maximal effect; tags tell the direction and shape of the fitted curve.

| SMILES | Potency | activity change, negative = growth inhibition |
| --- | --- | --- |
| O=C1c2ccccc2C(=O)c2c1cccc2N1CCN(C/C=C/c2ccccc2)CC1 | inconclusive [inhibitor, single point] | – |
| CCCCn1nc(C(=O)NCC(=O)Nc2c(C)cccc2C)c2ccccc2c1=O | inconclusive [inhibitor, single point] | – |
| COc1ccc(CC(N)c2csc(NC(=O)Nc3ccc(F)cc3)n2)cc1 (stereo unspecified) | active: 13 µM | – |
| O=S(=O)(NC1CC1)c1ccc(S(=O)(=O)N2CCCC3(CCCCC3)C2)cc1 | inconclusive [inhibitor, partial curve, poor fit] | – |
| CC(=O)N(C)c1ccc(NC(=O)Nc2ccc(Cl)cc2)cc1 | active: 18.4 µM | – |
| COc1cc(NC(=O)CSc2nc3nc(C)c(Cc4ccccc4Cl)c(C)n3n2)cc(OC)c1 | inconclusive [inhibitor, single point] | – |
| O=C(NN1C(=O)c2ccccc2NC1c1ccco1)c1ccc([N+](=O)[O-])cc1 (stereo unspecified) | inconclusive [inhibitor, partial curve, poor fit] | – |
| CCOc1ccc(CCN2C(=S)N([C@@H](CC(C)C)CN3CCCC3CN3C(=S)NC[C@@H]3Cc3ccc(O)cc3)C[C@@H]2Cc2ccc(O)cc2)cc1 (stereo partly specified) | active: 6.51 µM | – |
| O=C(NN1CCOCC1)c1cc(-c2cccc(Cl)c2)nc2ccccc12 | inconclusive [inhibitor, partial curve] | – |
| O=C(Oc1c(-c2ccccc2)c(=O)n2c3c(cccc13)CC2)c1cccc([N+](=O)[O-])c1 | inconclusive [inhibitor, single point] | – |
| C/C(=N\NC(=S)Nc1ccccc1C)c1ccc(O)cc1 | inconclusive [inhibitor, partial curve] | – |
| C#CCOCCOCCOCCNc1nc(N2CCN(C(=O)CCCCCCCCCCNC(=O)[C@H](CCCCN)n3cc(CCO)nn3)CC2)nc(N2CCN(C(=O)CCCCCCCCCCNC(=O)[C@H](CCCCN)n3cc(C[C@@H](C)CC)nn3)CC2)n1 | inconclusive [inhibitor, single point] | – |
| Cc1ccc(-c2cc(C(=O)N/N=C/c3c(C)nn(C)c3C)c3ccccc3n2)cc1C | active: 10.3 µM | – |
| COc1cccc(COC(=O)c2cc(=O)[nH]c3ccc(S(=O)(=O)N4CCOCC4)cc23)c1OC | – | inactive: -1.8% |
| COC(=O)C1=C(C)NC(=O)NC1c1cccc(OC)c1OCc1ccccc1 (stereo unspecified) | inconclusive [inhibitor, single point] | – |
| Cc1cc(=O)oc2c3c(cc(OCC(=O)NCc4ccco4)c12)OC(C)(C)CC3 | inconclusive [inhibitor, single point] | – |
| CCC(=O)c1cn(CC(=O)Nc2ccc(OC)cc2)c2ccccc12 | inconclusive [inhibitor, single point] | – |
| Cc1ccc2nc(-c3ccccc3)c(CN3CCSCC3)n2c1 | inconclusive [inhibitor, partial curve] | – |
| NC(=O)c1nsc(C(=O)N(c2ccccc2)C(C(=O)NCc2ccc(F)cc2)c2ccco2)c1N (stereo unspecified) | inconclusive [inhibitor, single point] | – |
| COC(=O)C(CCSC)Nc1ncnc2onc(-c3ccc(F)cc3)c12 (stereo unspecified) | – | inactive: -22.3% |
| CC(C)Cn1c(-c2cccc(Br)c2)nc2ccccc21 | inconclusive [inhibitor, single point] | – |
| Cc1ccc(-c2nc(-c3cc4cc(Cl)ccc4oc3=O)sc2C)cc1 | inconclusive [inhibitor, single point] | – |

| SMILES | Potency | activity change, negative = growth inhibition |
| --- | --- | --- |
| O=C(Nc1ccc(Cl)cc1)N1CCCN(Cc2ccccc2F)C1 | inconclusive [inhibitor, single point] | – |
| Cc1ccc(S(=O)(=O)c2c(C)nn(C(C)(C)C)c2OC(=O)C(C)C)cc1 | inconclusive [inhibitor, partial curve] | – |
| CCN(CC(=O)NCc1ccc(Cl)cc1)C(=O)C1CCN(S(=O)(=O)c2ccc(OC)c(OC)c2)CC1 | – | inactive: -25.2% |
| COCCNC(=O)c1cccc2c(-c3cccc(C(N)=O)c3)coc12 | inconclusive [inhibitor, single point] | – |
| O=C(Nc1ccccc1)c1nc[nH]c1C(=O)Nc1ccccc1F | active: 11.6 µM | – |
| COc1ccc(-n2c(=O)c(CCC(=O)N3CCN(c4cccc(OC)c4)CC3)nc3ccccc32)cc1 | inconclusive [inhibitor, partial curve, poor fit] | – |
| O=C(CSc1nc2ncc(Cl)cc2[nH]1)NCCc1ccc(F)cc1 | inconclusive [inhibitor, partial curve, poor fit] | – |
| O=C(OCC(F)(F)C(F)F)c1ccccc1C(=O)Oc1ccc(F)cc1F | – | inactive: -10.4% |
| CCOc1ccc(N/C(C)=C/C(=O)c2ccc3c(c2)OCCO3)cc1 | inconclusive [inhibitor, single point] | – |
| O=C(Nc1ccc(Cl)cc1)c1ccc(S(=O)(=O)N2CCOCC2)cc1 | inconclusive [inhibitor, single point] | – |
| Cc1ccc(C)c(N(C(=O)CNC(=O)c2ccco2)C(C(=O)NC2CCCC2)c2ccncc2)c1 (stereo unspecified) | – | inactive: 10.3% |
| CCn1c(NC(=O)c2ccc(COc3ccc(C)cc3[N+](=O)[O-])o2)nc2ccccc21 | inconclusive [inhibitor, single point] | – |
| Cc1ccc(CN2CC(C(=O)N3CCN(S(=O)(=O)c4ccc(C(C)C)cc4)CC3)CC2=O)cc1 (stereo unspecified) | inconclusive [inhibitor, single point] | – |
| C[C@@H]1CN([C@H](C)CO)C(=O)CCCn2nncc2CO[C@@H]1CN(C)S(=O)(=O)c1ccc(F)cc1 | inconclusive [inhibitor, partial curve, poor fit] | – |
| Cc1ccc2c(c1)c1cccc3c1n2CCN3CCC(N)=O | – | inactive: -18.5% |
| Cc1nn(Cc2cccc(C(=O)NN)c2)c(C)c1Cl | inconclusive [inhibitor, single point] | – |
| O=C(COC(=O)CCC1CCCC1)Nc1ccccc1Br | – | inactive: -7.17% |
| Cc1ccccc1-c1cc2nc(NCc3ccncc3)n(C)c(=O)c2s1 | inconclusive [inhibitor, partial curve] | – |
| COc1cccc(-c2cnc(C(O)c3c(C)cc(C)cc3C)[nH]2)c1 (stereo unspecified) | inconclusive [inhibitor, single point] | – |
| Cc1nc2c3ccccc3nc(SCC(=O)c3ccc(Cl)cc3)n2n1 | active: 18.4 µM | – |
| Cc1cc(C)cc(NC(=O)C(Cc2ccccc2)NS(=O)(=O)c2ccc3c(c2)CCC(=O)N3)c1 (stereo unspecified) | inconclusive [inhibitor, single point] | – |
| Nc1n[nH]c2c1C1(CCCC1)Cc1ccccc1-2 | inconclusive [inhibitor, single point] | – |

| SMILES | Potency | activity change, negative = growth inhibition |
| --- | --- | --- |
| OCc1cnc(SCc2ccccc2F)n1Cc1ccc(F)cc1 | inconclusive [inhibitor, single point] | – |
| CCCSc1ncnc2[nH]ncc12 | – | inactive: -36.9% |
| COC(=O)[C@H](Cc1ccccc1)NC(=O)Cn1ccc(NC(=O)OCc2ccccc2)nc1=O | inconclusive [inhibitor, partial curve] | – |
| Fc1ccccc1Cc1noc(CN(Cc2ccccn2)CC2CCCO2)n1 (stereo unspecified) | inconclusive [inhibitor, single point] | – |
| O=C(NNc1nc2ccccc2s1)Nc1ccccc1 | – | inactive: -16.1% |
| Cc1ccc(-c2nc(CS(=O)CC(=O)NCc3ccccc3)c(C)o2)cc1 (stereo unspecified) | – | inactive: -20.2% |
| CCCNC(=O)C1(C)CCCN(Cc2cc(-c3ccccc3)nn2C)C1 (stereo unspecified) | active: 16.4 µM | – |
| Nc1nc(SCC(=O)Nc2ccc(Cl)c([N+](=O)[O-])c2)n[nH]1 | – | inactive: -8.59% |
| CCN1CCN(C(c2cccc(OC)c2)c2sc3nc(C)nn3c2O)CC1 (stereo unspecified) | – | inactive: -10.5% |
| Cc1ccc2[nH]c(CNC(=O)c3ccccc3F)cc2c1 | – | inactive: -14.3% |
| O=C(Nc1ccc2nc(N3CCOCC3)sc2c1)c1cc2ccccc2o1 | inconclusive [inhibitor, partial curve, poor fit] | – |
| O=C(c1ccccc1)N1c2nc(-c3ccco3)nn2C2(CCCCC2)[C@@H]2CCCC[C@@H]21 | – | inactive: 1.6% |
| O=C(NC1CCCc2ccccc21)c1ccc(Br)cc1 (stereo unspecified) | inconclusive [inhibitor, single point] | – |
| CCOc1ccc(N(CC(=O)NCc2cccnc2)S(=O)(=O)c2ccc(F)cc2)cc1 | – | inactive: -13.5% |
| CC1=C(C(=O)O)N2C(=O)C(NC(=O)C(N)c3ccccc3)C2SC1 (stereo unspecified) | – | inactive: 1.3% |
| COc1ccc(OC)c(NC(=O)CSc2nncc3ccccc23)c1 | inconclusive [inhibitor, full curve, poor fit] | – |
| Cc1ccccc1OCc1ccc(-c2nc(C#N)c(N3CCN(c4cccc(Cl)c4)CC3)o2)o1 | – | inactive: 2.03% |
| Cc1ccc(C2CC(c3ccccc3)=NN2c2ccccc2)o1 (stereo unspecified) | inconclusive [inhibitor, single point] | – |
| CC(NC(=O)c1cccc(S(=O)(=O)N(C)C)c1)c1nc2ccccc2[nH]1 (stereo unspecified) | inconclusive [inhibitor, single point] | – |
| CCOC(=O)CCC(=O)NNC(=O)c1ccc(NC(=O)c2ccccc2)cc1 | inconclusive [inhibitor, single point] | – |
| Cc1ccc(SCCC(=O)Nc2ccccc2C(=O)NC(C)C)cc1 | inconclusive [inhibitor, partial curve, poor fit] | – |
| Cc1cc(C)c(NC(=O)C2CCCN(S(=O)(=O)c3c(C)noc3C)C2)c(C)c1 (stereo unspecified) | inconclusive [inhibitor, single point] | – |
